This note sets out measurements from the RNAGym collection of RNA variant scans (doi:10.1101/gad.245936.114).

Variants at the background level are over-represented here.

The chains are these.
B1: tRNA (parent)
chain: CUCUCGGUAGCCAAGUUGGUUUAAGGCGCAAGACUUUAAUUUAUCACUACGAAAUCUUGAGAUCGGGCGUUCGACUCGCCCCCGGGAGAUUUUUUCCUCGAGCAA

This data set covers variants of B1. The data set is described as follows: nonsense suppression (GFP-seq) (ratio to wild type); higher = more function; SUP4oc tRNA, yeast GFP reporter sort-seq. The method in brief: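 Raffinose/galactose medium with 80 mg/L adenine was used to grow yeast carrying genome-integrated tRNA variants (~3% random-mutation library), RFP, and a galactose-driven GFP ochre reporter. Cells went into GFP/RFP bins, which were Illumina-sequenced, and variants with ≥100 reads and ≥30 cells were scored. Nonsense suppression (GFPSEQ) is the per-bin median GFP/RFP weighted by estimated cell share and expressed relative to the unmutated parent tRNA.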
With G26C C34G A62C G66C, the nonsense suppression is ≤ 0.026.

For the variant U4G G67U C77G G85A, the nonsense suppression is ≤ 0.026.

On to G10A G61U, for which the nonsense suppression is ≤ 0.026.

As to U21G U22C G59U, the nonsense suppression is ≤ 0.026.

For the variant C12U G32C C77G G78U, the nonsense suppression was ≤ 0.026.

Consider C11G G59U C77U, for which the nonsense suppression was ≤ 0.026.

Regarding A30G U57C C68G U71C, the nonsense suppression was ≤ 0.026.

C5U C29A A60U G85C: the nonsense suppression is ≤ 0.026.

C34G G69A: the nonsense suppression is ≤ 0.026.

Regarding U4G C79A, the nonsense suppression is ≤ 0.026.

For U4G A89U, the nonsense suppression was 0.0348.

Consider G59U C81G C82A, for which the nonsense suppression was ≤ 0.026.

As to C5U G10U C12U A54G, the nonsense suppression is ≤ 0.026.

As to A13G G19A C68U, the nonsense suppression was ≤ 0.026.

With C3A C12U G15U U71A U76A, the nonsense suppression was ≤ 0.026.

Take U20G G25U G61A C79G: the nonsense suppression is ≤ 0.026.

Turning to U58G, the nonsense suppression was ≤ 0.026.

On to G61A U70C, for which the nonsense suppression was ≤ 0.026.

Take C12A U35G C81U: the nonsense suppression is ≤ 0.026.

For A9G U16A G19U G86C, the nonsense suppression was ≤ 0.026.

G67A A89G: the nonsense suppression is ≤ 0.026.

As to C72A C79G, the nonsense suppression was ≤ 0.026.

U17G U58G U76A: the nonsense suppression is ≤ 0.026.

Regarding U4G G25U G26C G32A G69C, the nonsense suppression is ≤ 0.026.

For A24U G61C, the nonsense suppression was ≤ 0.026.

G6U U58G U76C C80G: the nonsense suppression is ≤ 0.026.

On to C11A A30C U57A, for which the nonsense suppression was ≤ 0.026.

As for U8G U63C U70A, the nonsense suppression is ≤ 0.026.

For C1A C5U A13G U22A C27A C34G C80U, the nonsense suppression was ≤ 0.026.

As for A62C G67A U76G C81U, the nonsense suppression is ≤ 0.026.

Take A9U A30G: the nonsense suppression stood at 0.0995.

As to G26A A30C, the nonsense suppression is ≤ 0.026.

U2G U63A U71G G84U: the nonsense suppression is ≤ 0.026.

For G18U C82U G86C, the nonsense suppression is ≤ 0.026.

With C12A G61C A89C, the nonsense suppression is ≤ 0.026.

For the variant G15U C27G C77G, the nonsense suppression is ≤ 0.026.

For U22C U35G C56U U71A, the nonsense suppression was ≤ 0.026.

Take U2A G10U G19U U22G A31U G67C: the nonsense suppression is ≤ 0.026.

For the variant G15A U63C, the nonsense suppression is ≤ 0.026.

Regarding C72U G78A, the nonsense suppression is 0.0322.

Consider C3U U16C C29A G86A, for which the nonsense suppression was ≤ 0.026.

As to G10A A31G, the nonsense suppression was ≤ 0.026.

As for G6A A13U C56G C79U C82A, the nonsense suppression is ≤ 0.026.

Consider A9C A89U, for which the nonsense suppression is ≤ 0.026.

As for A9C U57C C82G, the nonsense suppression is ≤ 0.026.

Take G6U U55C G61U: the nonsense suppression was ≤ 0.026.

As for C1U C81A, the nonsense suppression is ≤ 0.026.

Take G32C C34G U35C: the nonsense suppression is ≤ 0.026.

As for U21C G67A, the nonsense suppression was 0.0282.

With U22A G88C, the nonsense suppression is ≤ 0.026.

With U17A C56A U57G, the nonsense suppression is ≤ 0.026.

Consider U63C G66A C79G, for which the nonsense suppression is ≤ 0.026.

For C3G A13G, the nonsense suppression is ≤ 0.026.

Take A24G C34A: the nonsense suppression was ≤ 0.026.

Regarding C12A U21A G25A, the nonsense suppression is ≤ 0.026.

As to G26A G67C, the nonsense suppression is ≤ 0.026.

As to U4G A54G, the nonsense suppression was ≤ 0.026.

Consider G26A C34U C56U, for which the nonsense suppression is ≤ 0.026.

Consider C64G C81G, for which the nonsense suppression was ≤ 0.026.

For the variant G19C U57G G66C C72A, the nonsense suppression is ≤ 0.026.

Take A13G C34U U58A G78U: the nonsense suppression was ≤ 0.026.

On to A13U A24G G69C U71C G84U, for which the nonsense suppression was ≤ 0.026.

Take U55C A74G: the nonsense suppression came out at 0.144.

Consider A23U G86A, for which the nonsense suppression is ≤ 0.026.

Turning to G59A G86A, the nonsense suppression is ≤ 0.026.

As to C11U G15C A30G, the nonsense suppression was ≤ 0.026.

Regarding U4A C56G C75A C81G C82G, the nonsense suppression is ≤ 0.026.

Consider C1U A30G U57A, for which the nonsense suppression is ≤ 0.026.

With A9U G73U, the nonsense suppression was ≤ 0.026.

On to C64A C83A, for which the nonsense suppression was ≤ 0.026.

Consider U35A U57G, for which the nonsense suppression is ≤ 0.026.

Regarding C12G A33G G61U, the nonsense suppression is ≤ 0.026.

With U8A U55G, the nonsense suppression is ≤ 0.026.

Take A60U C68A: the nonsense suppression was ≤ 0.026.

U2C C34U G69C A89G: the nonsense suppression was ≤ 0.026.

As for C3G U21A, the nonsense suppression was ≤ 0.026.

For the variant U63G G78U, the nonsense suppression turned out to be 0.0445.

C11A C79G: the nonsense suppression was ≤ 0.026.

Regarding C3U C11U A13G U21G U58A G84C, the nonsense suppression was ≤ 0.026.

As for A54U G65A, the nonsense suppression amounted to 0.0335.

For G10U C27U, the nonsense suppression is ≤ 0.026.

On to C1A U16C U70A, for which the nonsense suppression was ≤ 0.026.

Take G10C U21G: the nonsense suppression is ≤ 0.026.
